Measured values as given in PubChem BioAssay AID2451 (National Center for Advancing Translational Sciences (NCATS), 2010).
Hit rate of the full screen: of about 290,000 compounds, about 2,100 (0.72%) were called active. The inconclusive results got no clear call from the source; some entries with a clear call stand among them for comparison. The call rests on the fitted dose curve; in most records, active means well fitted inhibition curve with a large enough effect; inconclusive means small, poorly fitted or top-dose-only effect, or effect the other way; inactive means flat fitted curve, though single readings scatter. Potencies of inconclusive entries are doubtful fits and often do not repeat.

Biological target: Fructose-bisphosphate aldolase (Giardia intestinalis (strain ATCC 50803 / WB clone C6)) (UniProt A8B2U2)
Experiment: qHTS Assay for Inhibitors of Fructose-1,6-bisphosphate Aldolase from Giardia Lamblia; further: nearly all actives have a fitted effect of over 55% in size
Details: purified Giardia FBPA; series mostly up to 59.6 µM
Procedure, shortened: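 Giardia FBPA (40 nM reagent) was preincubated 10 min at RT with compound (up to 57.5 uM final), then substrate plus GAPDH/TPI/NAD/arsenate coupling system with diaphorase/resazurin was added; resorufin fluorescence (525/598 nm) was read after 20 min.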
Potency means the concentration at half of the fitted maximal effect; tags describe the fitted curve by direction and shape.

Chain of UniProt A8B2U2 (A8B2U2 whole entry, looked up): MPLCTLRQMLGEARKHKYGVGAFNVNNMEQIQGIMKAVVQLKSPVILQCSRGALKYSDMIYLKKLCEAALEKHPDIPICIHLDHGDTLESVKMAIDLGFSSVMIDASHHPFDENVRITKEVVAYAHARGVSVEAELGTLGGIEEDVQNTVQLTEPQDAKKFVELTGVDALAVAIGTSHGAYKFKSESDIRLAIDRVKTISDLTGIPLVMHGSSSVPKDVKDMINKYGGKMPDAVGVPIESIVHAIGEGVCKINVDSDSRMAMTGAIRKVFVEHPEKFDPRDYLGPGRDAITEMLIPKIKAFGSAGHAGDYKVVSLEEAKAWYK

Structure (SMILES)	Potency
O=C(O)c1ccccc1OC(=O)C12CC3CC(CC(C3)C1)C2	inactive
O=C(NC(=S)NCc1ccccc1)c1cccc([N+](=O)[O-])c1	inconclusive: 3.16 µM [inhibitor, partial curve]
COCCNCCOCCOc1ccc(Cl)c(C)c1	inconclusive: 17.7 µM [inhibitor, partial curve]
O=C(CNCc1cccnc1)Nc1cc(C(F)(F)F)ccc1N1CCOCC1	active: 7.92 µM
CC(C)C[C@H](NC(=O)c1nc[nH]c1C(=O)NCc1ccc(CNC(=O)OC(C)(C)C)cc1)C(=O)OC(C)(C)C	inactive
CCN1/C(=C/c2cc[n+](C)cc2)C=Cc2cc(C)ccc21	inconclusive: 1.99 µM [inhibitor, full curve]
Cn1c(COc2ccc(Cl)cc2)nc2ccccc2c1=O	inconclusive: 19.9 µM [activator, partial curve]
CSc1ccc(NC(=O)C(C)N2CCN(C)CC2)cc1 (stereo not given)	inconclusive: 15.8 µM [inhibitor, partial curve]
COc1ccc(NC(=O)c2nc[nH]c2C(=O)N[C@@H](CC(C)C)C(=O)OC(C)(C)C)cc1	inconclusive: 44.6 µM [inhibitor, single point]
CC(c1ccccc1)n1c(Br)nc2c1c(=O)[nH]c(=O)n2C (stereo not given)	inactive
CSc1nc2ccc(NC(=O)c3cc4ccccc4o3)cc2s1	inactive
Cc1ccc(Cn2c(SCCN3CCCCC3)nc3c2c(=O)[nH]c(=O)n3C)cc1	inconclusive: 31.5 µM [inhibitor, single point]
Cc1ccccc1OCc1nnc(SC(C)C(=O)O)n1Cc1ccccc1 (stereo not given)	inconclusive: 17.7 µM [activator, single point]
CCN(CC)CCN(C(=O)CCS(=O)(=O)c1ccccc1)c1nc2cc(OC)c(OC)cc2s1	inconclusive: 31.6 µM [inhibitor, single point]
N#CC12CCCCC1CC1CCCCC1(C#N)N2CCO (stereo not given)	inconclusive: 7.08 µM [inhibitor, partial curve]
C=C[C@@H](C1=CC(=O)C(OC)=C(OC)C1=O)c1ccccc1	active: 22.3 µM
CN1C(=O)/C(=C/c2ccc(OCc3cccc(F)c3)cc2)NC1=S	inactive
c1cc2c3c(cccc3c1)C(N1CCCCCC1)=N2	inconclusive: 4.47 µM [inhibitor, full curve, poor fit]
COc1ccc(C(=O)NNC(=O)c2ccncc2)cc1	inactive
Fc1ccc(-[n+]2nc(Nc3ccccc3)sc2-c2c(Cl)cccc2Cl)cc1	inconclusive: 31.6 µM [inhibitor, partial curve]
